# Assay results: the supplement of paper PMC11417369
# ± gives the standard deviation of the averaged measurements. The list shows a part of the results.
# System: PfAP2-LT AP2 domain (GST-tagged)
# Test: gcPBM binding intensity (ln(normalized median fluorescence intensity)); higher = stronger DNA binding
# How it was run: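 An Agilent 4 × 180k array carrying primer-extended double-stranded 36-bp intergenic genomic probes and negative controls received GST-tagged P. falciparum DNA-binding domains expressed in E. coli, about 25 μg on average, for 1 h. The binding buffer contained 1× PBS, 1% milk, 0.2 mg/ml BSA, 0.5% salmon testes DNA and 0.03% Triton X-100. Binding intensity is the top Masliner-normalised natural-log median intensity across replicate spots of either probe orientation, read after Alexa488 anti-GST antibody staining and a 488 nm scan.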
row,Sequence,gcPBM binding intensity (ln)
1,ATATTTAATTTGTATGGTACAGTACGATCTTTCTTT [XGTACX_site5533],8.97 ± 0.52
2,ATAAGAATATATAGAGTGCGTTGAAGAATTATAATA,8.89 ± 0.49
3,AAAAAACATTTGATCTGTACGCATAGACAATTATAT [XGTACX_site960],8.7 ± 0.36
4,TAAAAGAAAGCACATACACACACAAAAAAAAAAAAG [CACACA_site8159],9.77 ± 0.45
5,AATAATATGTTATCTCTTACACATATAAAAAATAAA [XGTACX_negctrl_site370],8.48 ± 0.43
6,AATTAAATGATTTATACATGCATATAAATATAAATA [TGCATGCA_site579],8.71 ± 0.43
7,TCTGTAAATATGTATACACACATATATGATCAATAT [CACACA_site3234],9.04 ± 0.4
8,AGTAGAAAAGGAACATGTACGAATTAAAAAAATAAT [XGTACX_site2347],9.03 ± 0.57
9,ACATATATATATATATATATATATATATTTATTTAT [CACACA_negctrl_site734],9.3 ± 0.14
10,TACACCATGATACATACACACAGACATATACACATT [CACACA_site6601],9.43 ± 0.28
11,CAATATATTTGATTTACACACTTACAATGTATTTAA [CACACA_site5632],8.79 ± 0.38
12,CGAAAAAATAAAAAAAAAATAAAATAAAATAAATAA [TGCATGCA_negctrl_site278],8.56 ± 0.59
13,ATAATCCTTAGACACACACACACACGAATAAATAAA [CACACA_site6364],9.93 ± 0.27
14,TTATACTGTACAAAAAGAATAGCAGTATAACAAAAA [CACACA_negctrl_site755],8.85 ± 0.44
15,ACAGGATTGGTTCAAACACACATATTATAGGACTAT [CACACA_site6455],9.02 ± 0.45
16,AAAAAAAAATCATATTGTACGTAAAAAAAAAAAAAA [XGTACX_site476],8.65 ± 0.47
17,AATATGTTTTGTTAGGTTGGTGTTGGTAGAATGTTT [CACACA_negctrl_site1563],9.17 ± 0.3
18,GTAAATAAATAAATAAATAAATATATATATATATAT [CACACA_negctrl_site1737],9.22 ± 0.23
19,AATAAAAAAAAATTCACACAAAGTTAGATTAACTAT [CACACA_site4224],8.53 ± 0.52
20,AATGATCAGATATACACACACACAAAAAAAAAAAAA [CACACA_site7806],9.72 ± 0.47
21,ATATATTTTTATGTAGTGCATTTAAATAATAAATGC,8.54 ± 0.33
22,ATTTTTTCCAATTCTTTACCTTAGAAAGGTGTTCAA [CACACA_negctrl_site1401],8.55 ± 0.53

row,Sequence,gcPBM binding intensity (ln)
1,ACCTCATAATATTTAACACACAAAATTATATGTATG [CACACA_site1704],9.11 ± 0.36
2,ATATATATATAATGAAGTACGAAAAAATAAGAAATG [XGTACX_site4001],8.89 ± 0.49
3,ATTCTAAATAAATGTACACACAAAAATAAATGTATA [CACACA_site1732],8.98 ± 0.45
4,TTTATATTTAAAAGGATGCACTACAAATTCTAAATA,8.37 ± 0.38
5,TATCCTTATATTTGCACACACACACCCTAAAATGAA [CACACA_site1029],9.71 ± 0.29
6,AAGACAAATATGAAGAGTACATTTATATAAAAATTA [XGTACX_site5142],8.73 ± 0.57
7,CTACAATATCTTTAAAGTACTTTTATATAACTACCA [XGTACX_site6119],8.62 ± 0.45
8,TTATATTAAACAAACACACACATATAAATATAAATA [CACACA_site7174],9.23 ± 0.3
9,AAAACAAACAGACACACACACATATTTATATTTATA [CACACA_site7681],9.79 ± 0.4
10,TTTTATTTTATTCAATTTTTACTTTTATAAAAATAT [GTGCAC_negctrl_site578],8.32 ± 0.52
11,AATATTAGGTTATGTAGTACATAACAATAATTATAC [XGTACX_site5733],8.98 ± 0.47
12,GTGTTGGGAAAAGGCATGCACTTTTTTTTTTTTTTT,8.86 ± 0.35
13,ATGTATATGCAAACATGTACATATATAAACATATAT [XGTACX_site4159],9.03 ± 0.3
14,AAGGAATATGTATATACACACAGGTACATATTTATA [CACACA_site6344],9.27 ± 0.45
15,ATAAAGAATATAAATACACACTTAAATATATATTAT [CACACA_site6071],8.85 ± 0.42
16,TAATTTTATATAAATTGTACAAAAATATTTTATTAA [XGTACX_site7166],8.18 ± 0.45
17,TGCAGGTGTTATTCACGTACGCATTTGATTAAAAAA [XGTACX_site7743],8.65 ± 0.42
18,TAAAATATACAAATTTGTACATATATATGTATGTAT [XGTACX_site1127],8.97 ± 0.4
19,ATAAAAACATAAAAATGTACATATATATATATATAT [XGTACX_site7165],9.73 ± 0.47
20,ATTAGAAAATAAAATAATAAATAAAATAAAAAAAAA [CACACA_negctrl_site409],8.47 ± 0.72
21,AAATATATATATAGTACATGCAGTAGATAATTTAAT [TGCATGCA_site299],9.24 ± 0.33
22,AATTCACATGTGAACTAAAAGAATATTATATATATA [CACACA_negctrl_site1632],8.77 ± 0.4
